Test results taken from the supplement of paper PMC10126150.
Sequences with one replicate were seen in a single cluster, so their values are uncertain.

System: ATP
Test: switch fluorescence ratio, 500 uM ATP over buffer (Cy3 cluster intensity, sum of 5 cycles each) (fold (ratio)); higher = stronger signal-on switching upon ATP binding; sequences stand for … in TCGTCGGCAGCGTCAGATGTGTATAAGAGACAGTTTTTTTTTTTTTTTTTTTTTTTTT…TC
Details: aptamer strand: ATP DNA aptamer (quencher-CACCTGGGGGAGTATTGCGGAGGAAGG + anchor), 100 nM annealed; ATP concentration: 500 uM; one replicate
In short: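 Cy3-labelled switching-strand clusters on a modified Illumina MiSeq flow-cell were annealed to 100 nM quencher-labelled ATP aptamer and imaged first in selection buffer, then after 15 min with 500 uM ATP at 22 °C. NaOH stripping and re-annealing separated each of five buffer/ATP cycles, and clusters outside 100-1000 RFU were excluded. The fluorescence ratio sums target-cycle Cy3 intensity over buffer-cycle Cy3 intensity per cluster and averages it per switch-domain sequence.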
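Also: ATP exposure 15 min at 22 °C before imaging.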

Row | Sequence | switch fluorescence ratio
1 | ACTACGACCT | 1.46
2 | GAAATCCTGG | 1.02
3 | TATGACTTCA | 1.04
4 | TCATTTTCAT | 0.978
5 | TTTAATGTCG | 0.919
6 | GCACAAATTA | 1.02
7 | CGTTCAGACT | 0.983
8 | GCGTGAATTG | 1.01
9 | CAGAGGTGAG | 1.06
10 | ATTTCAATGG | 1.02
11 | GGTGCGACGG | 0.98
12 | CTATATGAGG | 0.983
13 | ACCCCACGGA | 1.46
14 | CCTTAAACTT | 1.07
15 | TCTTGGTCA | 0.982
16 | GTTAGGCGCT | 1.06
17 | ATGGGGTGAT | 1.04
18 | TTAAGCCAAT | 1.03
19 | TTCTTGTAGG | 1.02
20 | AGTTAGATGG | 1
21 | TTTAAGCAGT | 1.28
22 | TTGCATGGGG | 1.04
23 | GTACATAAGT | 1.05
24 | AGGTCTCCC | 0.984
25 | ATCCTAATTT | 0.99
26 | CTTTAAGTT | 1.02

Row | Sequence | switch fluorescence ratio
27 | AGTCGGCCAT | 0.991
28 | CTTGCCGCGG | 1
29 | GCTTGAGAGT | 0.98
30 | GACCGTATTG | 1.03
31 | ATTATGGCCT | 1.03
32 | GTATCGGCGT | 1
33 | CGTGCGGACT | 0.993
34 | ATCGCAGCCT | 1.03
35 | GAGTTTCCTT | 1.03
36 | TATGGGAGTA | 0.958
37 | TAGTCTATCC | 0.981
38 | CAGTGCTTGT | 0.975
39 | CCGTCCTTG | 1.01
40 | GGGTGGTCGA | 1.02
41 | TGTTCATGAC | 1.04
42 | GCCTATGAGA | 1.03
43 | GCTTACTTGT | 0.989
44 | TAGCAGTCTT | 1.01
45 | ACAATGATG | 1.03
46 | CGTTCACCCA | 1.03
47 | GATCGGGTGT | 0.988
48 | GGATGCGTGG | 1.02
49 | GGGTATATCT | 0.973
50 | AACAGAAAGC | 1.06
51 | TTCCGGTCCA | 1.01
52 | TCGATGTAGA | 1.01

Row | Sequence | switch fluorescence ratio
53 | TTGATACAAA | 1.01
54 | AGATCACTGC | 1.05
55 | GATGAGTACA | 0.986
56 | TGTTAGCGGA | 0.98
57 | TAAGAACGC | 0.963
58 | ACACTAAGAC | 1.14
59 | ACCGACATCT | 1.15
60 | GTGGGAAAGC | 0.997
61 | CCCTGATTCA | 1.02
62 | CACGGGATAA | 1.05
63 | AAAATGACGC | 1.07
64 | CCTAGGTCCC | 1.01
65 | TAGGCATGG | 0.981
66 | GCGCTTCCTG | 1.02
67 | CTGCGGGTGG | 1.01
68 | AAGCAGAGTG | 1.01
69 | CTTACGGGAC | 1.15
70 | CGGAAAATAA | 1.03
71 | GGCGTGAATT | 1
72 | CTTACTACAT | 1.07
73 | CGCAATCTAG | 5.11
74 | GTGTGTACTG | 0.969
75 | AACCAGATCG | 1.02
76 | AGTAGATAAG | 1.01
77 | TGTAGGTACT | 1.08
78 | CTGAGTAGAG | 0.981

Row | Sequence | switch fluorescence ratio
79 | TACGGAAATA | 1.05
80 | GGCAGGCACA | 1.03
81 | AATGTCATGC | 0.944
82 | AACGTTAGAT | 1.06
83 | ATCCGCTCG | 1.16
84 | CCCAGTAATT | 1.14
85 | CGTCGCATAG | 2.66
86 | CGTGAGAGAC | 1.03
87 | TCGGTAACCT | 1.49
88 | GGTATTCTT | 0.998
89 | ACAAATCTAC | 1.03
90 | GTTAATTATG | 0.985
91 | TGTGGGAG | 0.973
92 | ATTGGACTTT | 1.02
93 | TGCGGCTTGG | 1
94 | GAAGAGCATA | 1.1
95 | TCAGTAAGCT | 1.04
96 | TTCATACTGA | 1.03
97 | AATAACCTGG | 1.2
98 | CTGAGGCTGC | 1.63
99 | ATACTTACTA | 1.19
100 | GTTGGCAGCA | 1.03
101 | GGGTGTGGGC | 0.955
102 | CTACGATTGT | 1.06
103 | CGGAAATCTT | 1.01
104 | TGCACGGCGA | 1.06

Row | Sequence | switch fluorescence ratio
105 | AAAGGGTTAA | 0.999
106 | CATAGCCTTA | 0.948
107 | TACATAACGG | 1.06
108 | CTCCCGGCCT | 1.07
109 | GCGGCGCCGC | 1.08
110 | GGCGACACAT | 1
111 | GCTCGGGGGT | 0.979
112 | TTTAAGACCA | 0.949
113 | ACCAGAGTGA | 1.18
114 | TTTCTTATGG | 1
115 | ACGTTCCTGG | 1.16
116 | AAGGAAAGAA | 1.03
117 | TTACAAAGTG | 0.98
118 | GCGGGAGTAA | 1.08
119 | TCCGGTTTGT | 1.05
120 | ATAGTACCAT | 1.08
121 | CTACGGCTGG | 0.991
122 | ACTTGAGTGC | 0.959
123 | ATCGAGGATT | 1.02
124 | ATAATAAACA | 0.985
125 | TAATACTTGA | 1.03
126 | TCTTCGTTGC | 1.15
127 | GAGTAGCCAG | 1.02
128 | GACCAGGCAA | 1.17
129 | CGAACTTATA | 1
130 | GCTGGTGGCA | 1.04

Row | Sequence | switch fluorescence ratio
131 | CGTTGAAGTA | 1
132 | GCGAGACCCT | 1
133 | CGATTCGGAG | 0.974
134 | ATTTATCAGA | 1
135 | CAGAGTTACT | 1.04
136 | ATATTTTGAG | 0.984
137 | ATGTACCTGT | 1.02
138 | TTCGAAACAT | 1.06
139 | TATATATAAT | 0.984
140 | TGGGCGAGCG | 1.04
141 | CGTCAGCCGT | 0.995
142 | TCGGGGCGCA | 0.956
143 | ATATGGGGAT | 0.976
144 | CCGAATTTTG | 0.968
145 | GATATTCAGT | 1
146 | TAGGTTTACC | 1.01
147 | ATCTCACTA | 1.02
148 | TATCTGGCGG | 0.942
149 | TGTAGTAGTG | 0.957
150 | CAATCTTGTA | 0.99
151 | ATAGTGAAGC | 0.975
152 | GCACCTCTGG | 1.06
153 | GTAATGACGT | 1.04
154 | AACGTCCATA | 1.01
155 | CGCCTAGTCT | 1.01
156 | CTAAGTACTG | 1.15

Row | Sequence | switch fluorescence ratio
157 | CGATATTTGA | 0.999
158 | TCACACGGCC | 1.09
159 | TCCAGTTAAG | 1.02
160 | ACGCGCCTT | 0.972
161 | AACATGTAGT | 0.966
162 | GGCCCTCGCG | 1.05
163 | ATAACGCTCC | 1.17
164 | ACACAAATAG | 1.03
165 | TTCTCCGG | 1.11
166 | TTGATCCTGG | 0.99
167 | GTCGATGTCG | 0.928
168 | CGCCTTTTAA | 1
169 | CCTTTTGTGC | 1.15
170 | TGAAGGGCA | 1.02
171 | GTGCCTCCAA | 1.14
172 | TAGACCTGTG | 0.951
173 | ATATTCTTTC | 1.02
174 | CCAAGGAGTT | 0.986
175 | AAGGGGTTTA | 1.03
176 | ATACCGAGAC | 1.16
177 | TCGCATATCT | 3.02
178 | GAGAGTTTTG | 0.957
179 | AAGTCCTGTT | 0.996
180 | AGTAACATAG | 1.05
181 | GATCATGTCA | 1.02
182 | GCTCATCTGC | 0.957

Row | Sequence | switch fluorescence ratio
183 | TAATCTGGGA | 0.976
184 | CCGGGCCGCT | 1.08
185 | GAACGGGGCT | 0.973
186 | GCTGGACTTA | 0.994
187 | TTTTCTTGA | 1.04
188 | CCGGCATTTT | 1.12
189 | ATGAGGACAG | 0.949
190 | GATTCGGCTC | 0.994
191 | AGAGGGAAA | 1.01
192 | CGGATAAG | 0.966
193 | CCGCTGGTCT | 1.32
194 | AGGGTGACAC | 0.9
195 | TACTAACTTT | 1.13
196 | CAAGTTTGCA | 0.986
197 | CGGGTTCAC | 0.98
198 | CGCGTAGAGA | 1.05
199 | GGCGCGTGGA | 0.966
200 | TTGGTAAACT | 1.25
201 | TTTTACGCAT | 1.43
